From US10023579B2, “Pyrrolopyrimidine compounds, use as inhibitors of the kinase LRRK2, and methods for preparation thereof” (Southern Research Institute, priority 2015, dated 2018)
For part of its entries the source gives two or more results. The list is limited to them. An entry can have further records. Values that stand side by side appear to be repeats (runs, samples, wells or individuals); a mean can stand among them.

Target: T1, WT-LRRK2 (recombinant GST-LRRK2 delta970) (Homo sapiens, UniProt Q5S007)
T1 construct: Recombinant GST-LRRK2 (delta970); GST (N); host or cells: baculovirus-infected Sf9 insect cells
Test: LRRK2 kinase assay, wild type (32P radiometric, peptide substrate)
Assay type: biochemical
Conditions: WT-LRRK2 30 nM, ATP ~92 μM (Km), 30 min at 30° C.
Description: Compounds were assessed for inhibition of LRRK2 inhibition using the following procedure. Recombinant GST-LRRK2 (delta970) purified from baculovirus infected insect cells (SF9), at least 90% pure and either wild-type sequence or bearing the pathogenic G2019S mutation, was combined into a kinase buffer at 30 nM concentration. Kinase buffer consists of 50 mM Tris HCl pH 7.4, 1 mM EDTA, and 50 μM peptide substrate (amino acid sequence […]). Experimental compounds or control (no compound) were added at desired concentrations in DMSO and water, where final concentration of DMSO in kinase reactions was 0.1% for all drug concentrations. […] Reactions were incubated at 1400 RPM at 30° C. for 30 min. and then spotted in triplicate directly onto a slot-blot apparatus fitted with phospho-cellulose paper and allowed to dry. Each slot was then washed with 10 mM phosphoric acid buffer until beta-radiation could not be detected in eluted wash buffer, usually ˜1 mL per slot. Paper within each slot were excised and radiation measured by liquid scintillation.

T1 sequence (Q5S007 970-2527 limits assumed): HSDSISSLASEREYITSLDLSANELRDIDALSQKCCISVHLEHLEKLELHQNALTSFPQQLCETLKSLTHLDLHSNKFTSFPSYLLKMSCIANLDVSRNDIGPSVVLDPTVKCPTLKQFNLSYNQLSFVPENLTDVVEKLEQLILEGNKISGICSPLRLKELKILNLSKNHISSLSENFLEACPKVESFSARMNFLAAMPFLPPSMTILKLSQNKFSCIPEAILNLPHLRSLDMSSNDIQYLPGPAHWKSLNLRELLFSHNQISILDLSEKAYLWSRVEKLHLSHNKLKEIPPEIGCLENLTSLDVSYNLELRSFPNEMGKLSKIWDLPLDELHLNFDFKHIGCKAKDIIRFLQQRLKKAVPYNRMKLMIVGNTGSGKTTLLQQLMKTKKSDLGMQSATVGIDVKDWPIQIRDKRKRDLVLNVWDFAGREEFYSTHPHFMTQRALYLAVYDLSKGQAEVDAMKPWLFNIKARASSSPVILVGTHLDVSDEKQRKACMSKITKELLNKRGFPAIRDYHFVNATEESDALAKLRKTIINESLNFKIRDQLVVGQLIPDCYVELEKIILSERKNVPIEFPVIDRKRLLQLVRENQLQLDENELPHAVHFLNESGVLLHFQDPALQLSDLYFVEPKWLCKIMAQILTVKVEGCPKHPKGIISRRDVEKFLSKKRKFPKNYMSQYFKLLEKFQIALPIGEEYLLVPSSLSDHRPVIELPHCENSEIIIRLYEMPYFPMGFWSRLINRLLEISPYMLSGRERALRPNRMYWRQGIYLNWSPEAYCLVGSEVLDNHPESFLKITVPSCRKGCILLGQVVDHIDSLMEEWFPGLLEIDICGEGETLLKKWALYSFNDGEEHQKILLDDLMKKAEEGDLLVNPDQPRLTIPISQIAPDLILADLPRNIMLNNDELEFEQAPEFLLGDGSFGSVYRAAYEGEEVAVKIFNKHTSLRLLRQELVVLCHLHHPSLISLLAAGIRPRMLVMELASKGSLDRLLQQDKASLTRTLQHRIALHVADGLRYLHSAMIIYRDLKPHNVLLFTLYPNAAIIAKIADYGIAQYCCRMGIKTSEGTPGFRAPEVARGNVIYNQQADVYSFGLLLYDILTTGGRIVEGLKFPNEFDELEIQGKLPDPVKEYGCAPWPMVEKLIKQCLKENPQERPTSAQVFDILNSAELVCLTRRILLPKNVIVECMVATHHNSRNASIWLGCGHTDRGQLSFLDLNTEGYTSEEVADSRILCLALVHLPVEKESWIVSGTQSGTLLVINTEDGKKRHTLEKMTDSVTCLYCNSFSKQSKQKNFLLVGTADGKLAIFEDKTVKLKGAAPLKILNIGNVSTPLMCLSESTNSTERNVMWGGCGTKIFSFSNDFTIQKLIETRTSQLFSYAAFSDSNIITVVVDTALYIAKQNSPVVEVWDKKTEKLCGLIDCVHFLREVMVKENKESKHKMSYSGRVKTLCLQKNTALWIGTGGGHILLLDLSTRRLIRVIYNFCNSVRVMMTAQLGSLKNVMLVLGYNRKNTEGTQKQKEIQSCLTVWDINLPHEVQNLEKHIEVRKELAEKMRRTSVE

With `COCCn1cc(Nc2nc(N[C@@H](C)C3CC3)c3cc[nH]c3n2)nn1` [Compound 39, (S)-N4-(1-cyclopropylethyl)-N2-(1-(2-methoxyethyl)-1H-1,2,3-triazol-4-yl)-7H-pyrrolo[2,3-d]pyrimidine-2,4-diamine] the IC50 was 43 nM, 740 nM, 57 nM [one cell].
